Numbering of substitutions follows the chain as printed. Names may count otherwise.
T1: ALPI expressed on the surface of CHO cells (CHO-ALPI) (Homo sapiens, UniProt P09923)
T1 construct: expressed in transfected cells
T1 sequence (P09923 20-503 limits assumed): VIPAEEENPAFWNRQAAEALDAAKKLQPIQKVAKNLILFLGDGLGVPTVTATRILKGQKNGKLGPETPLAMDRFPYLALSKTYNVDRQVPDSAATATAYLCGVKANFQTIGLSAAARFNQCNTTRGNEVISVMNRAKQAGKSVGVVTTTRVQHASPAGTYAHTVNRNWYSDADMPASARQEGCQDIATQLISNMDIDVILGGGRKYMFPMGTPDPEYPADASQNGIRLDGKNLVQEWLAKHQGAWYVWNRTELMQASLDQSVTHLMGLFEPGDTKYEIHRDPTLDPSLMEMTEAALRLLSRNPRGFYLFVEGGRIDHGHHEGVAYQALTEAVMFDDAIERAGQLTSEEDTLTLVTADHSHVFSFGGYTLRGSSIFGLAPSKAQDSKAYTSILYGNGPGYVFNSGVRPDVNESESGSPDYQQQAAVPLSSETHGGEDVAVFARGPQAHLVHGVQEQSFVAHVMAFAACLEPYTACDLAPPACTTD

T2: ALPL expressed on the surface of CHO cells (CHO-ALPL) (Homo sapiens, UniProt P05186)
T2 construct: expressed in transfected cells
T2 sequence (P05186 18-501 limits assumed): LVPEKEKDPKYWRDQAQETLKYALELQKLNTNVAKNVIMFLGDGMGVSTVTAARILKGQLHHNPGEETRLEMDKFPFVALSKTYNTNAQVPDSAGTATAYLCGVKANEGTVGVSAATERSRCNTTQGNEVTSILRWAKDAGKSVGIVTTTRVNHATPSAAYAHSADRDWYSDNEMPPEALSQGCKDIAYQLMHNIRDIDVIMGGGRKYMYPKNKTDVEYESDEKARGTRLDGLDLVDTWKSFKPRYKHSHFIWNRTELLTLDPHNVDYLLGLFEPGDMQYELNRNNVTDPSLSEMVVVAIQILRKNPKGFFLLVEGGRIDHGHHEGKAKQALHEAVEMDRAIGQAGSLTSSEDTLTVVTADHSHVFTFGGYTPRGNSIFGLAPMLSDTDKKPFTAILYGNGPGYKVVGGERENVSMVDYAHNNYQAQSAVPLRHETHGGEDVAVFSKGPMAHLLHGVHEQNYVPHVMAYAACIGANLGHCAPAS


Experiments:
[1] = target: T1, ALPI expressed on the surface of CHO cells (CHO-ALPI); assay: Cell-surface binding by flow cytometry, CHO-ALPI; conditions: for KDapp CHO-ALPI: VHH-hFc proteins, flow cytometry, up to 350 nM
Description: (§1) C-terminal His tagged VHH proteins were assessed for ALPP, ALPPL2, ALPI and ALPL cell-surface binding by flow cytometry. Binders encompassing different epitope bins were screened on CHO cells stably expressing ALPP, ALPPL2, ALPI or ALPL. High levels of cell-surface proteins expression were confirmed for each of the cell-lines by flow cytometry.
(§2) Cell surface binding of test agents to hALPP isoforms was characterized in four CHO-ALPP isoform stably transfected cell lines (CHO-ALPP, CHO-ALPPL2, CHO-ALPI and CHO-ALPL) and the resulting KDapp values determined. Adherent cells were detached from tissue culture flasks by incubating with 0.1% EDTA/PBS solution at 37° C. for ~10 minutes or until cells detached easily. Cells were re-suspended in ice-cold PBS/2% FCS in 15 ml tubes and centrifuged at 1700 rpm for 5 mins at 4° C. Supernatant was removed and the cell pellet re-suspended in PBS/2% FCS. A cell count was performed using a Chemometec Nucleocounter NC-202 and 2.5×10^5 cells were aliquoted per test sample into a 96 well plate. Cells were incubated with 100 μl of test agents at a range of concentrations, plus controls for 1 hr on ice. The sample plate was centrifuged at 1700 rpm for 5 mins at 4° C. The supernatant was removed, and a wash performed by re-suspending the cell pellets in 0.25 mL of ice-cold PBS/2% FCS using a multichannel pipette. Samples were again centrifuged at 1700 rpm for 5 min at 4° C. Supernatant was removed and two further washes performed as described. After the final wash and centrifugation step, excess liquid was removed by blotting the plate on tissue paper. Binding of VHH (His6 tagged) agents was determined by adding 100 μl of anti-x6His tag Ab (Abcam) per cell pellet sample as appropriate and incubating on ice for 30 mins. Wash steps were performed as described previously. Fitc-anti-mouse antibody (ThermoFisher) was used to detect binding of the VHH (His6 tagged) agents by incubating with the appropriate samples for 30 min on ice in the dark. Wash steps were performed as described previously. All cell pellets were finally re-suspended in […] of ice-cold PBS/2% FCS and left on ice in the dark prior to analysis on a Merck-Millipore Guava EasyCyte HT or Thermo Fisher Attune N×T flow cytometer.
(§3) VHH-hFc proteins were assessed for human ALPP, ALPPL2, ALPI and ALPL cell-surface binding by flow cytometry. Binders were screened on CHO cells stably expressing human ALPP, ALPPL2, ALPI or ALPL.
(§4) Cell surface binding of test agents to hALPP isoforms was characterized in four CHO-ALPP isoform transfectant cell lines (CHO-ALPP, CHO-ALPPL2, CHO-ALPI and CHO-ALPL) and the resulting KDapp values determined. Adherent cells were detached from tissue culture flasks by incubating with 0.1% EDTA/PBS solution at 37° C. for ~10 minutes or until cells detached easily. Cells were re-suspended in ice-cold PBS/2% FCS in 15 ml tubes and centrifuged at 1700 rpm for 5 mins at 4° C. Supernatant was removed and the cell pellet re-suspended in PBS/2% FCS. A cell count was performed using a Chemometec Nucleocounter NC-202 and 2.5×10^5 cells were aliquoted per test sample into a 96 well plate. Cells were incubated with 100 μl of test agents at a range of concentrations, plus controls for 1 hr on ice. The sample plate was centrifuged at 1700 rpm for 5 mins at 4° C. The supernatant was removed, and a wash performed by re-suspending the cell pellets in 0.25 mL of ice-cold PBS/2% FCS using a multichannel pipette. Samples were again centrifuged at 1700 rpm for 5 min at 4° C. Supernatant was removed and two further washes performed as described. After the final wash and centrifugation step, excess liquid was removed by blotting the plate on tissue paper. Binding of VHH-hFc agents was determined by adding 100 μl of Fitc-anti-human Ab (ThermoFisher) and incubating for 30 mins on ice in the dark. Wash steps were performed as described previously. […]

[2] = target: T2, ALPL expressed on the surface of CHO cells (CHO-ALPL); assay: Cell-surface binding by flow cytometry, CHO-ALPL; conditions: VHH-hFc proteins
Description: as §1, §2, §3, §4

Molecule	KDapp CHO-ALPI [1]	KDapp CHO-ALPL [2]	binding to CHO-ALPI cells (in words) ([1]; VHH-hFc, highest concentration used (350 nM))
D10-hFc (S239C): D10 VHH fused via [G4S]3 linker to human IgG1 Fc with S239C (SEQ ID NO: 98) (protein) QVQLVESGGGLVQPGGSLRLSCAASGSIFSVNTMGWYRQAPGKQRDLVAVATSGGTIHYADSVKGRFTISRDNAKNTVYLQMNSLKPEDTAVYYCNLVVPYGMIAGDHDYWGQGTKVTVSSGGGGSGGGGSGGGGS[human IgG1 Fc with changes not spelt out]	No binding	No binding	–
E06-hFc (S239C): E06 VHH fused via [G4S]3 linker to human IgG1 Fc with S239C (SEQ ID NO: 99) (protein) QVHLVESGGGLVQAGGSLRLSCAASRRSFSEYAMGWFRQAPGKEREFVAAIGWSGVIEYADSVKGRFTISRDNAKDTVYLQMNSLKPEDTAVYYCAAGLGIRVVSQTPAYWGQGTQVTVSSGGGGSGGGGSGGGGS[human IgG1 Fc with changes not spelt out]	No binding	No binding	–
C07-hFc (S239C): C07 VHH fused via [G4S]3 linker to human IgG1 Fc with S239C (protein) QVQLVESGGGLVQAGESLRLACAASGTIFSGNAVGWYRQAPEKQREWVSSITDYGDTDYAEAVKGRFTISRDNAKNTVYLQMNSLKPEDTAVYYCYVYQRGESEEYWGQGTQVTVSSGGGGSGGGGSGGGGS[human IgG1 Fc with changes not spelt out]	No binding	No binding	–
A06-hFc (S239C): A06 VHH fused via [G4S]3 linker to human IgG1 Fc with S239C (SEQ ID NO: 97) (protein) QVHLVESGGGLVQAGGSLRLSCAASGRTFLSMGWFRQAPGKEREFVAAISWTGGSTGYADSVKGRFTISRESDKETMYLQMNSLKPEDTAVYYCAARGDVYYGGDDATRYKYWGQGTQVTVSSGGGGSGGGGSGGGGS[human IgG1 Fc with changes not spelt out]	No binding	No binding	–
B01-hFc (S239C): B01 VHH fused via [G4S]3 linker to human IgG1 Fc with S239C (protein) QVQLVESGGGLVQAGGSLRLSCEVTRSPMPIDTMAWYRQAPGRQRELVAIISRSGSTNYADSVKGRFTISRNDTKSTMYKSTMYLKMNTLELEDTGVYYCNAVGLWNGAEYWGQGTQVTVSSGGGGSGGGGSGGGGS[human IgG1 Fc with changes not spelt out]	–	No binding	very weak binding
E10-hFc (S239C): E10 VHH fused via [G4S]3 linker to human IgG1 Fc with S239C (SEQ ID NO: 100) (protein) QVQLVESGGGLVQAGGSLRLSCAVSGRALSDYNIGWFRQAPGKEREFVARKTWDGSSTRYDDSVKGRFTVSIEDAKNTAYLQMSSLKTEDTAVYYCAAGRYSRARGWEYDYWGQGTQVTVSSGGGGSGGGGSGGGGS[human IgG1 Fc with changes not spelt out]	No binding	No binding	–
F05-hFc (S239C): F05 VHH fused via [G4S]3 linker to human IgG1 Fc with S239C (SEQ ID NO: 101) (protein) QVQLVESGGGLVQAGGSLRLSCAASGRAFGDYNIGWFRQAPGKEREFVARRTWDGSSTRYDDSVKGRFTVSIDNAKNTAYLQMNSLKTEDTAVYYCAAGRYSRVRGWEYDYWGQGTQVTVSSGGGGSGGGGSGGGGS[human IgG1 Fc with changes not spelt out]	No binding	No binding	–

From patent publication US20260216242A1, “ALPP-SPECIFIC VARIANT ANTIGEN BINDING MOLECULES” (ALMAC DISCOVERY LIMITED, priority 2022, published 2026)
